# Experimental data as given in ChEMBL document CHEMBL4888484, “Replenishing the malaria drug discovery pipeline: Screening and hit evaluation of the MMV Hit Generation Library 1 (HGL1) against asexual blood stage Plasmodium falciparum ,using a nano luciferase reporter read-out” (2022).
# About 540 (0.36%) of roughly 150,000 compounds showed an effect of 50% or more. This is one part of the list.
# System: Plasmodium falciparum
# Test: Primary screen in NF54 nanoGlo assay, in single point, at 2uM, 72h; a lower Z score goes with more inhibition
# Assay type: functional, Erythrocyte
# Details: timepoint 72 hour
Compound,% Inhibition [%],Z score
O=C(c1ccc(-c2cc(O)c(F)c(F)c2)cc1)N1C[C@H]2CCC[C@@H](C2)C1,-12,1.62
CCOc1ccc(NC(=O)C2[C@@H]3C=C[C@]4(O3)C(C(=O)NC3CCCCC3C)N(C3CCCCC3)C(=O)[C@H]24)cc1 (some centres undefined),2,-0.36
Cc1noc(C)c1Cc1nc(Cc2cccs2)no1,-12,1.1
CC(=O)c1ccc(C(C)(C)C)cc1NC(=O)C(C)C,34,-0.76
Cc1[nH]ccc1C(=O)Nc1cnn(C(F)F)c1,-8,1.36
CC(C)OCC(=O)N1CCC2(CC1)CC(=O)N(Cc1ccc(F)c(F)c1)C2,-15,1.85
O=C(NC(Cc1ccncc1)[C@H]1C[C@@H](O)C1)c1cnc[nH]c1=O (some centres undefined),-6,0.98
CCNC(=O)C[C@H]1CCc2nn(Cc3cccnc3)c(=O)n2CC1,10,-1.57
CS(=O)(=O)N[C@H]1CCN(C(=O)c2c[nH]nc2-c2ccc(Cl)s2)C1,3,-0.46
C[C@@H](CNCCCN1CCOCC1)c1ccccc1,-21,1.94
O=C(c1ccc(=O)[nH]c1)N1CCC[C@H](Oc2ccncc2)C1,7,-0.99
Cn1nc(-c2cnccn2)cc1CNC(=O)NC(C)(C)C,-6,1.03
CC1CN(CCC2Oc3cccnc3NC2=O)CC(C)O1 (centres undefined),-12,1.4
CCN(C(C)=O)c1nc(-c2ccc(C3CCCCC3)cc2)cs1,-8,1.23
NC(=O)c1cnc2n1CCN(C(=O)Cc1cccs1)C2,4,-0.76
CC(=O)Nc1ccc(C)cc1S(=O)(=O)N1CCC[C@H]1c1cc(C)on1,-3,0.54
C[C@@H](C(=O)N(C)C)N1CCc2[nH]nc(C(c3ccccc3)c3ccccc3)c2C1,2,-0.37
CCC(CC)C(=O)N[C@H]1CO[C@H]2[C@@H]1OC[C@H]2O,22,-3.38
c1ccc(C[C@]2(c3ccccc3)CCNC2)cc1,38,-1.06
O=C(Cn1ncc(=O)c2ccccc21)Nc1ccc(Cl)cc1,-13,2.42
Cc1nc([C@H](C)N2CCN(C(=O)C(C)(C)C)CC2)oc1-c1ccc(Cl)cc1,-2,0.22
CN(C)c1cccc(S(=O)(=O)Nc2ccc(N(C)C)nc2)c1,-3,0.42
CCOc1ccccc1C(=O)Nc1nnc(CCC(=O)c2ccccc2)s1,-15,1.97
CO[C@H]1C[C@H]2CN(C(=O)c3c[nH]c4ccccc34)CC(=O)N2C1,0,-0.02
Cc1ccc(-c2cc3nc(C)cc(N4CCC(C(=O)N[C@@H](C)c5ccccc5)CC4)n3n2)cc1,6,-0.69
CC(=O)N1CC[C@H](NC(=O)c2ccc3c(c2O)CCCC3)c2ccc(F)cc2C1,-4,0.48

Compound,% Inhibition [%],Z score
CCCc1nnc(NC(=O)c2cnn(-c3ccc(=O)[nH]n3)c2C(F)(F)F)s1,-2,0.38
CCOc1ccc(NC(=O)Nc2cc(S(=O)(=O)N3CCC(C)CC3)ccc2N2CCC(C)CC2)cc1,-7,1.2
Cc1ccc2c(c1)OCCN2Cc1cnc2cnccn12,-13,2.39
Cc1ccc(F)c(OCC2=NOCC2)c1,-9,1.84
CCc1cc(CNC(=O)Nc2cc(NC(C)=O)c(F)cc2F)on1,-7,1.19
C[C@@H](CO)NC(=O)C(=O)Nc1cc(Br)ccc1F,-9,1.52
CCn1c(C2CCNCC2)nn(Cc2noc(C3CC3)n2)c1=O,4,-0.69
CC1CCCCC1OCC(=O)N(C)CC1CCCC1 (centres undefined),-2,0.47
Fc1cccc(C2(c3nc([C@H]4CCOC4)no3)CCC2)c1,-6,0.6
Cc1cc(C(=O)CN2C(=O)COc3ccc(Cl)cc32)c(C)n1C,0,-0.05
COc1ccnc(C(=O)Nc2cc(C)c(Br)cn2)c1,-7,1.08
COCCCN(Cc1c(C)nn(-c2cccc(F)c2)c1N1CCN(C)CC1)C(=O)CC(C)(C)C,14,-1.58
Cc1cccc(NS(=O)(=O)c2ccc(C)c(C(=O)Nc3ccc(C)c(S(=O)(=O)Nc4ccccc4Cl)c3)c2)c1,-9,1.45
COc1ccc([C@H]2CCc3nc(C(=O)NCc4ccccc4)cn3C2)c(OC)c1,-6,0.59
COC(=O)c1cc(C)nc2c1c(=O)n(Cc1c(F)cccc1Cl)c(=O)n2-c1ccccc1OC,-1,0.09
CC1CCCCC1NC(=O)C1CCc2cncn2C1 (centres undefined),-11,1.42
Cc1ccccc1O[C@H](C(=O)NCc1n[nH]c(=O)[nH]1)C(C)C,-2,0.29
CCOC(=O)CN(C(=O)c1ccncc1F)C(C)(C)C,-11,1.08
O=C(Cc1cccc(O)c1)N[C@H](c1ccccc1)C1CCOCC1,-3,0.54
COCCc1ccnc(NC(=O)N2CC3(CCOCC3)[C@@H]3CCC[C@@H]32)c1,13,-1.61
CC[C@@H](c1ccccn1)N(C)Cc1ccc(Cl)o1,5,-0.92
COc1ccccc1N(CC(=O)Nc1ccccc1C(=O)NCCc1ccccc1)S(=O)(=O)c1ccc(C)cc1,-14,2.26
Cc1ccc(C(=O)NCCc2cc(F)cc3c2OCOC3)c(O)c1C,0,-0.02
Cc1noc2ncnc(N3CCOC[C@@H]3CC(C)C)c12,-4,0.52
COc1ccc(CCNC(=O)c2csc(CN(Cc3ccc(C)cc3)Cc3ccc(F)cc3)n2)cc1OC,-9,0.91
Cc1ccc(C2CC(C)CCN2S(=O)(=O)c2ccc3c(c2)ncn3C)o1 (centres undefined),-2,0.26
